Test results taken from PubChem BioAssay AID1508624 (National Center for Advancing Translational Sciences (NCATS), 2021).
Out of some 48,000 compounds screened, about 120 (0.25%) were called active. Inconclusive results (about 4%) are left out. Calls follow the shape of the dose curve; as a rule, active = well fitted activation curve with a large enough effect; inconclusive = small, poorly fitted or top-dose-only effect, or another doubt; inactive = no such curve, though single readings can be large or run the other way. The list shows a part of the results.

Test: Primary qHTS for Identification of Small Molecule Activators of Huntingtin-Antisense Promoter Activity; also: nearly all actives have a fitted effect of over 55% in size
Settings: HEK293 HTT-AS promoter firefly luciferase reporter, 24 h; series mostly up to 57.5 µM; activity change, positive = activation: at the top concentration
Outline: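 HEK293 luciferase promoter-reporter cells (2,500/well) plated 24 h, then compounds added at up to 57.5 uM final for 24 h at 37 °C. Firefly luminescence by Dual-Glo, normalized to vehicle (0%) and zero RLU (-100%).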

Activity change, positive = activation, inactive:
CCN(C(=O)Cn1nc2c3cc(F)ccc3n(Cc3cccc(C)c3)cc-2c1=O)c1cccc(C)c1 -12.4%
COc1cc(OC)c(NC(=O)N2CCOc3ccc(C)cc32)cc1Cl -28.4%
COc1ccc(Cn2nnc3c(=O)[nH]c(C4CCCN(C(=O)c5ccccc5Cl)C4)nc32)cc1OC (stereo unspecified) -1.4%
N#Cc1cc2c(=O)n3ccccc3nc2n(-c2nnc(SCc3ccc(F)cc3)s2)c1=O -3%
COc1ccc(CNC(=O)c2oc3c(c2C)-c2nn(Cc4ccccc4Cl)cc2CC3)cc1 -37.1%
Cc1c(C(=O)NCCN(C)C)oc2c1-c1nn(Cc3ccccc3Cl)cc1CC2 0.608%
COc1ccccc1-c1c(C)nn2c(N3CCN(c4ccc(Cl)cc4)CC3)cc(C)nc12 -20%
CCOC(=O)c1ccc(Nc2nc(C)cc(C)n2)cc1 3.05%
CC(Sc1nc(-c2ccccc2)c(C#N)c(=O)[nH]1)C(=O)Nc1ccc(F)cc1 (stereo unspecified) -13.2%
COc1ccc(N(CC(=O)N2CCN(c3cc(C)ccc3C)CC2)S(=O)(=O)c2c(C)noc2C)cc1 -24.4%
O=C(NC1CC(=O)N(c2ccccc2)C1)C1CCCC1 (stereo unspecified) -8.72%
Cc1ccc2c(c1)c(=O)c1ccccc1n2CCCC(=O)Nc1ccc(F)cc1F -12% [at 11.5 µM, percent change from vehicle, -100% = no light]
COC(=O)c1ccc2nc(C)cc(Nc3ccc(O)cc3)c2c1 -15%
CCOC(=O)c1cc(-c2ccc(F)cc2)n(CCC(=O)Nc2ccccc2OC)c1C -25.4%
CC(Sc1ncc(S(=O)(=O)c2ccc(C(C)C)cc2)c(N)n1)C(=O)Nc1ccccc1 (stereo unspecified) -46.6%
COc1ccc(NC(=O)Cn2c(=O)n(-c3ccc(Cl)cc3)c(=O)c3c(C)c(C(=O)N(C)C)sc32)cc1Cl -7.7%
Cc1ccc(CSc2nc(=O)c3c(C)cc(C)nc3n2C2CC2)cc1 -36.6%
CCOC(=O)c1ccc(NC2=CC(c3ccc(Br)cc3)N(c3ccc(C(=O)OCC)cc3)C2=O)cc1 (stereo unspecified) -12.4%
COC(=O)c1cc(Cl)c(NC(=O)/C=C/c2ccc(Cl)cc2Cl)cc1OC 1.58%
CCOC(=O)c1ccc(NC(=O)C(=O)NCc2ccco2)cc1 20.4%
COc1cccc(Cc2nc3ccccc3nc2SCC(=O)N2CCc3ccccc32)c1 -6.1%
Cc1cccc(Oc2nc3c(C)cccn3c(=O)c2/C=C(\C#N)c2nc3ccccc3s2)c1 5.21% [at 11.5 µM, percent change from vehicle, -100% = no light]
O=S(=O)(c1ccccc1)c1nc(-c2cccc(Cl)c2)oc1NCc1ccccc1 -20.5%
COc1ccc(Br)c2c1-c1nc(NC(=O)c3ccccc3SC)sc1C2 -16.4%
CCOc1ccc(N2CC(c3nc4ccccc4n3CCCOc3ccc(OC)cc3)CC2=O)cc1 (stereo unspecified) 3.62%
COCCNC(=O)CSc1nnc(-c2ccc(OC)c(OC)c2)c(-c2ccc(OC)c(OC)c2)n1 1.58%
COC(=O)c1c(NC(=O)c2ccc(S(=O)(=O)N3CCCCC3C)cc2)sc2c1CCN(C(C)C)C2 (stereo unspecified) -11.3%
CCOC(=O)N1CCc2c(sc(NCc3ccc(OC)c(Br)c3)c2C(=O)Nc2cc(OC)ccc2OC)C1 -18%
CCOC(=O)c1ccccc1NC(=O)N(Cc1ccc(C)cc1)Cc1cccn1-c1nnc(N2CCCC2=O)s1 -11%
Cc1ccccc1-c1noc(CSc2nnc(Cc3ccccc3)n2-c2ccc(F)cc2)n1 -46%
COc1ccc(-c2noc(CSc3nnc(-c4ccncc4)n3-c3ccccc3)n2)cc1 -42%
C#C[C@]1(O)CC[C@@H]2[C@@H]3CCC4=CC(=O)CC[C@@H]4[C@H]3CC[C@@]21CC -27.7%
CCC(C)n1c(=N)c(S(=O)(=O)c2ccc(C)cc2)cc2c(=O)n3cc(C)ccc3nc21 (stereo unspecified) 0.108%
COc1cccc(NC(=O)Cn2c(=O)n(CCCC(=O)NCc3ccc4c(c3)OCO4)c(=O)c3ccccc32)c1 -5.29%
Cc1ccc(CNC(=O)c2c(-c3ccccc3F)noc2C)o1 -21.2%
Cc1ccc(-n2ncc3c(NNC(=O)c4ccccc4C)ncnc32)cc1 -10%
COc1ccc(-c2c(C)nn3c(N4CCC(C(=O)NCCC(C)C)CC4)cc(C)nc23)cc1OC -10.8%
CC(C)c1ccc(C2c3c(-c4ccccc4O)n[nH]c3C(=O)N2CCc2ccccc2)cc1 (stereo unspecified) -57.3%
CC(C)CCn1c(SCc2ccc(F)cc2Cl)nc2ccsc2c1=O -4.02%
CC1=C(C(=O)Nc2ccccc2)C(c2ccc(C(=O)O)cc2)n2nc(SCC(=O)c3ccc(C)cc3)nc2N1 (stereo unspecified) 1.94%
CCc1ccc(-c2[nH]c3c(c2-c2c(-n4cccc4)n(C)c(=O)n(C)c2=O)c(=O)n(C)c(=O)n3C)cc1 4.24%
Cc1ccc(Cn2c(=O)c3c(nc4n3CCN4c3cc(C)cc(C)c3)n(C)c2=O)cc1 12.7%
CCN(CC)CCn1c(=N)n(CC(O)COc2ccccc2C)c2ccccc21 (stereo unspecified) -37.3%
COc1ccc(-c2nc(CCNC(=O)c3cc(OC)c(OC)c(OC)c3)cs2)cc1 -17.8%
COCCCNC(=O)c1ccc(NC(=O)N2CCCCc3ccccc32)cc1 -18%
CCCN1CCN(CC2=C(C(=O)OCC)C(c3ccc(Cl)cc3)NC(=O)N2)CC1 (stereo unspecified) -7.72%
COc1ccc(Cl)cc1NC(=O)CCCn1c(=O)c2cccn2c2cccnc21 -23.5%
COc1ccc(CNC(=O)Cc2c(C)c3c(cc(C)c4c(C)coc43)oc2=O)cc1 -2.32%
C#CC1(O)CC[C@H]2[C@@H]3CCC4=CCCC[C@@H]4[C@H]3CC[C@@]21C (stereo partly specified) -9.05%
CCN1CCC(N(Cc2ccc(F)cc2)C(=O)Nc2cccc(C(F)(F)F)c2)CC1 -25.5%
CCc1ccccc1Nc1nn2c(=O)c3ccc(C(=O)Nc4ccc(OC)cc4)cc3nc2s1 -28%
O=C(CSc1nc2ccccc2nc1Cc1ccccc1)N1CCN(c2ccccc2)CC1 3.49%
Cc1cccc(NC(=O)NCCOCCn2c(=O)oc3ccccc32)c1C -10.3%
COC(=O)c1nnn(CC(=O)NC(=O)Nc2ccccc2F)c1C(=O)OC 18.4%
Cc1noc(NS(=O)(=O)c2ccc(NC(=O)c3ccc(Br)cc3)cc2)c1C 7.32%
Cc1c(Cl)cccc1NC(=O)c1ccc2nc(C(C)C)oc2c1 -17.6%
COc1ccc(N2CCN(C(=O)c3cc4cc5ccc(Cl)cc5nc4o3)CC2)cc1 -1.51%
COc1ccc(C)cc1S(=O)(=O)NCC(c1ccc(N(C)C)cc1)N1CCc2ccccc21 (stereo unspecified) -21.3%
O=C(O)c1ccc(N2C(=O)c3[nH]nc(-c4ccccc4)c3C2c2cccc(F)c2)cc1 (stereo unspecified) -12%
CN(c1ccccc1)c1ncnc2c1cnn2C 0.429%
Cc1cc(NC(=O)N2CCC(CN3CCOCC3)CC2)ccc1Br -7.45%
COc1cccc(C2C(=O)N(C3CCCCC3)CC(=O)N2Cc2ccc(Cl)cc2)c1 (stereo unspecified) -19.7%
Cc1ccc(NC(=O)Cn2c(=O)oc3cc(S(=O)(=O)N4CCC(C)CC4)ccc32)cc1Cl -45.4%
Cc1ccc2c(c1)C(=O)OC(C(=O)Nc1ncc(Cc3ccccc3)s1)C2 (stereo unspecified) 1.52%
CCc1ccc(C2C(C(=O)Nc3ccc(Cl)cc3)=C(C)Nc3ncnn32)cc1 (stereo unspecified) -25.2%
CCNc1nc(Oc2ccc(=O)n(-c3ccccc3)n2)nc(N(C)C)n1 -9.79%
COc1ccc(CCC(=O)NCc2nc3cccnc3n2Cc2ccccc2)cc1 -9.2%
CC(C)Oc1ccc(C(=O)Nc2ccc(-c3nc4ccccc4s3)cc2)cc1 15.8%
Cc1ccccc1Cn1c(CN2CCN(c3cc(Cl)ccc3C)CC2)nc2c1c(=O)[nH]c(=O)n2C -4.45%
O=c1cc[nH]c(=O)[nH]1 1.63%
Cc1ccc(Cl)cc1NC(=O)CCCN1C(=O)CCn2nc(-c3cn(C)c4ccccc34)cc21 -19.6%
CCOc1ccc(CCNC(=O)CCn2c(=O)c3cccn3c3cccnc32)cc1 -15.8%
COc1ccc(NC(=O)C2CCC(CNS(=O)(=O)c3ccc4c(c3)C(C)(C)C(=O)N4C)CC2)cc1 (stereo unspecified) -20.5%
CCOc1ccc(Nc2ncnc3c2nc2n3CCCCC2)cc1 -10.6%
Cc1cccc(N2CCN(C(=O)Cn3ncc4c3-c3ccccc3OC4)CC2)c1C -31.9%
Cc1noc(-c2ccc(CSCCC(=O)O)cc2)c1NC(=O)OC(C)c1ccccc1Cl (stereo unspecified) -24.4%
Cc1cc(CC(=O)O)c(C)n1-c1ccc(Cl)cc1 -6.42%
O=C(Nc1nnc(S(=O)(=O)N2CCCCCC2)s1)c1cccc(Br)c1 -86.4%
O=C(COc1ccccc1)Nc1ccc2nc(SCC(=O)N3CCc4ccccc43)sc2c1 -18.2%
CCOC(=O)N1c2ccc(C(F)(F)F)cc2[C@@H](N(Cc2cc(C(F)(F)F)cc(C(F)(F)F)c2)C(=O)OC)C[C@H]1CC -11.7%
N#Cc1ccccc1Cn1c(SCC(=O)Nc2ccc(F)cc2)nc2ccccc21 -17.5%
Clc1cccc(N2CCN(c3c4c(nc5nncn35)CCC4)CC2)c1 -33.6%
Cn1cnc(S(=O)(=O)N2CCC(C(=O)Nc3ccc(C#N)cc3)CC2)c1 -9.16%
CC(=O)c1ccc(NC(=O)c2nc(-c3ccccc3)n(-c3ccccc3Cl)n2)cc1 -22.3%
COc1ccc(CNCCCSc2nnnn2C)c(OC)c1 -3.42%
CCc1nnc(SCc2ccc(F)cc2Cl)c2cc3sc(C)cc3n12 -2.13%
CCOc1cc(C(=O)Nc2ccc(-c3nc4cc(Cl)ccc4o3)cc2)cc(OCC)c1OCC 1.04%
CC(=O)c1cccc(-n2c(=O)c3c4c(sc3n(CC(=O)c3ccc(Cl)cc3)c2=O)CN(C(C)=O)CC4)c1 -2.52%
Cc1cccc(C(=O)N(Cc2ccco2)Cc2ccccc2F)c1 -39.7%
COc1ccc(CNC(=O)CCCc2nnc3n(CCC(C)C)c(=O)c4sccc4n23)cc1 -7.38%
Cn1cc(C(=O)NCCc2ccc(Cl)cc2)c(=O)c2cc(S(=O)(=O)N3CCOCC3)ccc21 26.7% [at 11.5 µM, percent change from vehicle, -100% = no light]
